From article PMC12136788
The other results are listed elsewhere or left out.

T1: UNK ZnF1-3 (human, UniProt Q9C0B0 31-174)
T1 sequence: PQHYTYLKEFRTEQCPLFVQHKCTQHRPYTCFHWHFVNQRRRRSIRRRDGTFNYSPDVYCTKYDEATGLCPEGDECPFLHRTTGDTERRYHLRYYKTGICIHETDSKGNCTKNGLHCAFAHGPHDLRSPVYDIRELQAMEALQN

B1: chr16:32386223:32386224:+_ENSMUSG00000053774_ENSMUST00000115151|mus_hu|motif|central (ssRNA)
RNA: GGGAGUUCUACAGUCCGACGAUCACUCUAAUUUGAUUUUGGGUUUUGUUGGCAGAAAAAGCCCAAGACAUCUGAAAAUUACGGGUAACCUCCGCCAUCCUCCUUACUAAAUGUUGUCUUCUGAAUGGAGUUGAAAGGUCUUCCCAACAGAGGAUUGAGCAUCA
B2: chrX:98862621:98862622:+_ENSMUSG00000034160_ENSMUST00000044475|mus_mus|motif|central (ssRNA)
RNA: GGGAGUUCUACAGUCCGACGAUCCUGCAUCUCCUUUAGAGUGUUUCCCAUAUUGGAAUAAGCAUCAGCAAAUGUAGGACGGAUUCGUAUGGCUUCUUUAUAGUGCAUCAGUGCUUCCUGCAGCUUGCCCUGCUGUUGCAGUACCAACAGAGGAUUGAGCAUCA
B3: 19455474_19464526_8968_CDS_ENSG00000127481_ENST00000375254|human|control|control (ssRNA)
RNA: GGGAGUUCUACAGUCCGACGAUCCAUGUAUGGGAUGGCCCGGACACCGCCAACGUUUCGUAAUUGAGGCAGGGUCUGCAGUAAUCUCUCCAACAGCAUUAGACGGACCAUGUGCAGCCUGUUGCUAGUGUGGACAUCUCCUUCCAACAGAGGAUUGAGCAUCA
B4: chr16:36085169:36085170:+_ENSMUSG00000075229_ENSMUST00000164916|mus_mus|motif|central (ssRNA)
RNA: GGGAGUUCUACAGUCCGACGAUCCUUUAAUAACGUUAAGUCAUCCAGGUUCUUUUCUCUCUCUUCUCGGAGACUUUUUACGGCUGCUGAGGUCUGGGCUAUACAGUUCUUUAUAACUCUGUCCCUACUGACAUGAGCUGCCAUCAACAGAGGAUUGAGCAUCA
B5: chr3:96579679:96579680:+_ENSMUSG00000028098_ENSMUST00000029740|mus_hu|FALSE|FALSE (ssRNA)
RNA: GGGAGUUCUACAGUCCGACGAUCGUGGAGGUCUUGCUCCCCAGAAGUCAGUGUGAGUCUGGUGACCCCUUUCAUUGGCUCUAUUAUCUUGGUCCAGUGGACUGCUACUUAGAAAGGGUCUAAAAUCUUGAAAAAACAUCGUGUCAACAGAGGAUUGAGCAUCA
B6: chr2:175006660:175006661:-_ENSG00000138430_ENST00000344357|hu_hu|motif|central (ssRNA)
RNA: GGGAGUUCUACAGUCCGACGAUCUAUAAUGGGCCCAAUCAUUUCCUCAUCUUUAAGCUGAAGCUCUUCAUGUAUUAUUUCGGUAUCUCGAAUAGGAUCUACACUUCCUUCAACGUGCGUGAUAUCAUCAUCUUCAAAAGCACGCAACAGAGGAUUGAGCAUCA
B7: chr16:18254220:18254221:-_ENSMUSG00000022718_ENSMUST00000009321|mus_hu|FALSE|FALSE (ssRNA)
RNA: GGGAGUUCUACAGUCCGACGAUCUGGGGGGGGGGGGGGGGCGCACAGAGACCACAAGAGUAUGGCAGCACCUGCUGUGGUGGUGCCUGGGAACAGCAAGACACAGCGAGGCUCCCCAACCUUUAGGGGAACACAUGUGCACGACAACAGAGGAUUGAGCAUCA
B8: 16358949_16359069_114_3pUTR_ENSMUSG00000022789_ENSMUST00000023477|mouse|control|control (ssRNA)
RNA: GGGAGUUCUACAGUCCGACGAUCCGCCUCCAUGACCCCCGAAACACUGGACCCCCAACCCAGCAGGCCACUGCAAUGAAUGGGGACUCGACCCACAGCCCGCUUGCUUCCUCUUCUCCUCCGCCCUUUCCUCGGGAGCCCGCACAACAGAGGAUUGAGCAUCA
B9: chr18:40848303:40848304:-_ENSG00000132872_ENST00000255224|hu_hu|motif|central (ssRNA)
RNA: GGGAGUUCUACAGUCCGACGAUCAGUUGCAAAUAGUUUUACUCAACUUUUCACACUCAAAAACACUUUAAAUUUUAAAAGCGGAAAACUAUUUACAAAUUAUCCAUUUUAAUUUUAAAAAUGUUUGUUGUUGGUUUCAUUGUUCAACAGAGGAUUGAGCAUCA
B10: chr7:141441981:141441982:+_ENSG00000106028_ENST00000265304|hu_mus|hu_hu_hu_mus_False|1_1 (ssRNA)
RNA: GGGAGUUCUACAGUCCGACGAUCCUCAUGUCUUACAAACUGACGAAAUACCUGUAACACAGGUCUUCGAAACAUGGCUUCUGUUUUUCUUACAACCUAAUCUUUAGGCUUUUCCUAAAGGAAAGAAAGAAAAGAGAAGCCCAGCAACAGAGGAUUGAGCAUCA
B11: chr3:16083472:16083473:+_ENSMUSG00000047213_ENSMUST00000108345|mus_mus|motif|central (ssRNA)
RNA: GGGAGUUCUACAGUCCGACGAUCCGAACCAUUUUGUACUGAAACUUUAUUUCCUUGCCCUUUAGGUCUCUGAUCCACGCGGGUGGCUGACAUUCUUCACCGUAACCCGAGAGGAACCGCCGCCGCCGCCGCCGCUGCCUGGGCCAACAGAGGAUUGAGCAUCA
B12: chr8:104447970:104447971:+_ENSG00000164934_ENST00000297579|hu_hu|hu_hu_hu_mus_False|78_88 (ssRNA)
RNA: GGGAGUUCUACAGUCCGACGAUCAUACACUUCCCUGCUUCGGCUCUUGUCUACAGGAAAGAUUCGAAUAGACUUAUCAAAGCUGGCAGACACAAAUUCCUUCCCAGUGGGAGAGUAGUCCACAUCAAGUACUGCAGACACGUGCAACAGAGGAUUGAGCAUCA
B13: chr10:98431539:98431540:+_ENSMUSG00000019943_ENSMUST00000020107|mus_hu|FALSE|FALSE (ssRNA)
RNA: GGGAGUUCUACAGUCCGACGAUCCGUAAUUCCAAAGUCUCCAUCAUGAUUAGCUUCCUUCAAAGAGUUUUUCACACCACUGUAAGCAACUGAGUUGUUUGCCAUGUCGCCCAUUACAAGUAUAAUAUAUCAGAAGGAAAAUGUCAACAGAGGAUUGAGCAUCA
B14: chr13:108516651:108516652:-_ENSMUSG00000032846_ENSMUST00000105097|mus_hu|motif|central (ssRNA)
RNA: GGGAGUUCUACAGUCCGACGAUCAUCAUGCGCCAUUAAGAAGGUCUCUCGGGCUUUGCUGAGGAACUCUAUAAACUCACGGUAGUGCCGAGGACUGAUGUGUGUGAGCCGUGAGUGCGUUGUGUUGAUGUAGGCCCCGAUCGUCAACAGAGGAUUGAGCAUCA
B15: 127924370_127924490_3061_CDS_ENSMUSG00000025369_ENSMUST00000099131|mouse|control|control (ssRNA)
RNA: GGGAGUUCUACAGUCCGACGAUCUCCAGCAGCCCCGGUGGGAGGUAUGGGCUGGGAGCCUGGGGGCAAGGUUGGUGGCUGCUGCUGCUGCUGCUGGUGCAUCUGCUGGAAGUGCUGCUGCCGGGCCCUCAUCUCUGCAUACUUCAACAGAGGAUUGAGCAUCA
B16: 129069043_129072782_2106_CDS_ENSMUSG00000034951_ENSMUST00000057576|mouse|control|control (ssRNA)
RNA: GGGAGUUCUACAGUCCGACGAUCAUUGUCAGCCAUGUUGUCCAACUCGGGAAGUUCAUCCCCUUGCUCAGGAGGGAAUGGCAGCUUCCCAGCAUGCAAGGCCAACUCUAAUGCAGAGUCCUCUUGAGUCACAAAUGGCUCAAGCAACAGAGGAUUGAGCAUCA
B17: chr17:47010600:47010601:-_ENSG00000159210_ENST00000290330|hu_mus|FALSE|FALSE (ssRNA)
RNA: GGGAGUUCUACAGUCCGACGAUCGACAGUCACAUACCCGUUUUUCUCGGCCAGCUGCAGCACAACAGUGUGAUCCAUAUUGAGCUCAGCGGGAACAGACUGGAUGAGGUAAGUGCCUCCCACAGGGAUGAUGCCGAAUCCAGUCAACAGAGGAUUGAGCAUCA
B18: chr12:39756943:39756944:-_ENSG00000139116_ENST00000544797|hu_mus|hu_hu_hu_mus_False|1_58 (ssRNA)
RNA: GGGAGUUCUACAGUCCGACGAUCGGUUUGGCUGUUACCCCCAAGGGAAUCCUGCAAGAGUCUUGUCAGCUUAGAGUCUCUAUAGGGGACAUGGGUGGCUCUCUUGCUCUUGUCCCCCAAGGCGCUGAUUACAUUCCCAAGUGCCAACAGAGGAUUGAGCAUCA
B19: chr17:27613171:27613172:-_ENSG00000108256_ENST00000225388|hu_mus|motif|central (ssRNA)
RNA: GGGAGUUCUACAGUCCGACGAUCCGUAGGAGAGGCCAGGGGAUUUUGAUUUUCUAUUUCGUAGUCCUUUGAGAGAAACACGGAAGCACCUUGACUACUGGUGUCUGCUUUUUGCAGGUCACCUAUAUGACUGGGGUCCAAGGACAACAGAGGAUUGAGCAUCA
B20: 61770245_61778930_940_3pUTR_ENSG00000086200_ENST00000325324|human|control|control (ssRNA)
RNA: GGGAGUUCUACAGUCCGACGAUCAAGCACUUUAGUAAAAAGAAUGAUGGUCUUUUCCAGUCUAUCUCUACACACAUUAUCUGUACCUAUACUUCUACUGCAUUCCAGAAACUGUUUUAGACGUUCAAAUAUUCCAUGUAAAAACAACAGAGGAUUGAGCAUCA
B21: 130162959_130166533_1262_CDS_ENSMUSG00000026353_ENSMUST00000027592|mouse|control|control (ssRNA)
RNA: GGGAGUUCUACAGUCCGACGAUCCCUCGCUUCUUCUAGAGGAGCAUCAGAAGGAAACUGGUUUGUAAAGGAAGAACCAUCAGGCAGCCGGAACUGAAUUCUUGCAAUGGUGCUUCUGUCUCGUGCUGUAGACUCUCUCUUGACCAACAGAGGAUUGAGCAUCA
B22: chr5:32601156:32601157:+_ENSG00000113387_ENST00000502897|hu_hu|FALSE|FALSE (ssRNA)
RNA: GGGAGUUCUACAGUCCGACGAUCGGUUUUAUUUAUAUGGCUCGAAUUUUACAGUUUUCUUACUGCAUCAUCAAUGUCAGAAAUCUGUUCCUUCAGCUGGCUCCAUUGUUCUGGAUUUAAAGAAAUACCUUUUCUUCCUGGUUUCAACAGAGGAUUGAGCAUCA

These binders were tested against T1, UNK ZnF1-3 (assay: nsRBNS (natural sequence RNA bind-n-seq); RBNS binding buffer (assumed for nsRBNS): 25 mM Tris pH 7.5, 150 mM KCl, 3 mM MgCl2, 0.01% Triton X-100, 500 ug/ml BSA, 20 U/ml SUPERase-In, 4 C; UNK is unkempt and MSI1 is Musashi-1; names of the RNAs are library labels; protein concentration not given here; high values mean tight binding).
Binder B1 has a binding signal of 1.15 enrichment R. B2 gave a binding signal of 0.999 enrichment R. With B3 the binding signal was 0.89 enrichment R. In the case of B4, the binding signal is reported as 0.496 enrichment R. Work on B5 yielded a binding signal of 0.722 enrichment R. B6 showed a binding signal of 0.782 enrichment R. B7 showed a binding signal of 1.23 enrichment R. Work on B8 yielded a binding signal of 1.36 enrichment R. Work on B9 yielded a binding signal of 0.806 enrichment R. B10 was tested, and the binding signal was 0.368 enrichment R. With B11 the binding signal was 0.897 enrichment R. For B12, the binding signal was 0.981 enrichment R. For B13, the binding signal was 1.25 enrichment R. With B14 the binding signal was 0.756 enrichment R. With B15 the binding signal was 1.14 enrichment R. B16 showed a binding signal of 0.225 enrichment R. For B17, the binding signal was 1.32 enrichment R. B18 was tested, and the binding signal was 0.75 enrichment R. B19 was tested, and the binding signal was 1.05 enrichment R. B20 showed a binding signal of 0.737 enrichment R. B21 gave a binding signal of 1.6 enrichment R. Binder B22 has a binding signal of 0.458 enrichment R.
